The RNAGym collection of RNA variant scans (doi:10.7554/elife.90254)
Read counts are not given, so values of variants with three or more changes are uncertain.

B1: LINE1-mini (parent)
chain: GGCAGAGCUCAACACAGCGUGGCAAAGUGGCUGUGGCUAGACUGCC

Variants of: B1
Experiment: self-cleavage, relative activity (ratio to wild type); higher = more cleavage; in vitro, sequencing; the parent is a self-cleaving ribozyme

Variant	self-cleavage
GGCAGAGCUCAACAUAGCGUGGCAAAGUGGCUGUUGCUACCCUGCC	0.02
GGCAGAGCACACCACAGCGUUCCUAAGUGGAUGUGGCUAGGCUACC	0.01
GGCUGAGCUCAACACAGAGUGGCAAAGUGACUGUGGUUAGACUGCC	0.06
GGCAGAGCUCAACACAGCUUGGUAAAGAGGCUGUGGCUAGACUGCC	0.11
GGCAGAGAUCAACACAGGGUGGCAAAGUGGCUGUUGCUAGACUGCC	0.02
GGUAGAGCUCAACACAGCGUGGCAACGUGGCUGUGGCUGGACUGCC	0.08
GGCAGAGCUAAACACAGCGUGGCAAAGUGGCUGUGGAUAGAUUGCG	0.01
GGCAGAGCUCAACACAGCGUGACAAAGUGGAUGUGGCUCGACUGCC	0.02
GGCAGAGUUGAACACAGCGUGGCAAAGUGGCUGUGGCUAGACUUCC	0.03
GGCAGAGCUCAGCACACCGGGGCAAUGUGGCUGUGGCUAGACUGCC	0.01
GGCACAGCUUAUCACGGCGUGGCAAAGUGGCUGUGGCUAGACUGCC	0.04
GGCAGAGCUCAAUACAGCGUGGCAAAGUCGCUGUGGAUAGACUGCC	0.05
GGCGGAGCUCAACACAGCGUGGCAAAGUGACUGUCGCUAGACUGCU	0.02
GGCAGAGCUCAACACAGCGUGGCGAAGGGGCUGAUGCUAGACUACC	0.03
GGAAGAGCUCAACACAGCGUGGCAAAUUGGCUCUGGCUAGACUGCC	0.06
GGCGGAGCUAAAUACAGGAUGGCAAAGUGCCUGUGGCUAGACUGCC	0.01
GGCAUAGCUCAACACAGCGUGGCAAAGUGGCUGUAGUUAGACUGCC	0.02
GGAAGAGCUCAACACAACGUGGCAAAGUGGCUGUGGAUAGACUGCC	0.11
GGCAGAAAUCAACACAGCGUGGAAAAGUGCCUGUGGCUAGACUGCC	0.12
GGCAGAGCUCAACACAACGUGGCAAAAUGACUGUGGCUAGACUGCC	0.1
GGCACAGCUCCACACAGCGAGGCAAAGUGGUUGUGGUUAGACUGCC	0
GGCAUAGCUCAACACAGCGUGGCUAAGUGGCUGUGGCUAGACUGCU	0.06
GGCAGAGCUCAACACCGCUUGGCAAAGUGGCUCUGGCUAGACUGCA	0.04

Variant	self-cleavage
GGCAGUGAUCAACAGAGCGUGGCAAACUGGCUGUGGCUAGACUGCC	0.03
GGCAGGGUUCAACACAGCGUGGCAAAGUGGCUGUGGCUAGAAUGCC	0.07
GUCAGAACUCAACACAGCGUGGCAAAGUGGCUGUGGCUAAACUGCC	0.04
GGCAGACCUCAACACGGCGUGGAAAAGUGGCUGUGGCUAGACUGCC	0.02
GGCCGAGCUCCACACAGCGUGGCAAAGUGCCUGUGGCUAGACUGCC	0.04
GGCAGAGCUCAACAUGGCGUGGCAUAGUGGCUGUGGCUAGACUGCC	0.52
GGCAGAGCCCAACACAGCGUGGCAAAAUUGCUGUGGCUAGACUGCC	0.03
GGCGGAGCUCAAUACAGCGUGGCAAAGUUGCUGUGGCUAGACUGCC	0.1
GGCAGAGCUCCACUGAGCGUGGCAAAGUGGCUGUGGCUAGACUUAC	0
GGCAGCGCUCAACAUAGCGUGGCAAAGUGGCUGAGUCUAGAGUGCC	0.02
GGCAGAGCUCAACACUAGGUGGCAAAGUGGCUGUGGCUAGACUGCC	0.02
GGCAGAGCUCAACACAGCGUGGCAAAGUGGCUGUGUGUAGACAGCC	0.13
CGCAGAGCUUAACACAACGUGGCAAAGUGGGUGUGGCUGGACUGCC	0.02
GGCAGAGCUCAACACAGCACGGCAACGUGGCUGUGGCUAGACUGCC	0.08
CGCAUAGCUCAACACAGAGUGGCAAAGUAGCUGUGGCUAGACUGCA	0.02
GACAGAGCUCAACACAGUGUGGCAAAGUGGCUGUGGCUAGACAGCC	0.13
UGCAGAGCUCAACACAGCGUGGCGAAGUGGCUGUGGCUGGACUGCC	0.02
GGAAGAGGUCAACACAGCGUGAAAAAGUGGCUGUGGCUAGACUGCC	0.03
GGGCGAGCUAAACACAGCGUGUCAAAGUGGCUGUGGCUGGACGGCC	0.03
GGCAGAGCUCAACACAGGGUGGGAAAGCGGCUAUGGCUAGACUGCC	0.05
UGCAGAGCUGAACACAUCGUGGCAAAGUGGCUGUGGCUAGACUGCA	0.07
GGUAGAGCUAAACACAGCGUGGCAAGACGGCUGUGGCUAGACUGCC	0
GGCAGAGCUCAGCACAGCGCGGCAAAGAGGCUGUGGCUAGACUGCC	0.06

Variant	self-cleavage
GGCAUAGCUCAACACAUCGUGGCAAAGUGGCUGUGGCUAGAUUGCC	0.02
GGUAGAGCUCAACACGGCGUGGCAAAGUGACUGUGGCUAGACUGCC	0.01
GGCAGAGCUAAACACCGCGUGGCAAAGUGGCUGUGGCUAGACCGCC	0.03
GGCAGAGGUCAACACAGCGUGGCAAAGUGGCUGUGGCUAGAUUUCC	0.28
GGCAGAUCUCAACACAGCGUCGCAAAGUGGCUGUGGCUAGACUGUG	0.61
GGCAGUGCUCAACACAGCGUAGCAAAGUGGCUGUUGCUAGACUGCC	0.1
GGCAAAGCCCAACACAGCGUGGCAAAGUGGGUGUGGCUAGACUGCC	0.02
GGCAGAGCUCAACACAGCGUGGCACAGUGGCUGAGGCAAGACUGCC	0.09
GGCAGACCUCAACACAGCGUGGCAAAGUGGAUUUGGCUAGACUGCC	0.08
GGCCGAGCUCAACACACCGUGGCAAAGUGGCUGUGGCUAUACUGCC	0.28
GGCAGGGCUUAAUACAGCGAUGCAAAGUGGCUGUGGCCAGACUGCC	0.01
GGCAGAGCUAAACACAGCGUGGCAAAGUGGCUCAGGCUAGACUGCC	0.02
GGGAGAGCUCAACACAGCGUGGCAAAGUGGGUGUGGAUAGACUGCC	0.03
GGUAGAGAUCAACAUAGAGUGGCAAAGUGGCUCUGGCUAGACCGCC	0.17
GGCAGUGCUCAACACCGCGUGGAAAAGUGGCUAUGGCUAGACUGCC	0.08
GACAGAGCUCAACACAGCGUGCCAAAGUGGCUGUGGCUAGACUACC	0.17
GGCAGAGCUCAACACAGCGUGGCAAAGUGGAUGUAGCUAGACUGCA	0.03
GGCAGAGCUCAACACAGCAUGGCAAUCUGGCCGUGACUAGACUGCC	0.03
GGCAGAGCUCAACACAGCGAGGCAAAGUGGCUGUAGCUAGUCUGCC	0.29
GGCAGAGCUCAACACGGAGUGGCAAAGUGGCUGUGGCUAGAAUGCC	0.02
GGGAGAGCUCAACACAGCGUGUCAAAGUGGCUAUGGCUAGACUGCC	0.1
GGCAUAGCUGAACACAGCGUGGCAAAGUAGCUGUGGCUAGACUGCC	0.02
GGCACAGCUCAACACAGCGUGGCAAAGUGGCGGUGGCUAGACUGGC	0.05

Variant	self-cleavage
GGCAGAGCUCAACACAGCCUGGCAAAGUGACUGUCGCUAGACUGCC	0.07
GGCAUAGCUCAAUACAGCGUGGCAAAGUGACUGCGGCUAGACUGCC	0.06
GGCAUAGCUCAACACAGCGUUGCAAAGAGGCUGUGGUUAGACUGCC	0.03
GGCAGAGCGCAACACAGCAUGGCAAAGUAGCUGUGGCUAGACUGCG	0.28
GGCAGAGCUAAACAAAGCAUGGCAAAGUGGUUGUGGCUAUACUGCC	0.01
GACAGAGCUCAACACAGCGUGGCAAAGUGGCUGUGGCUAGACCUCC	0.17
GGCAGAGCUCAAUACAGCGUUGCAAAGUGGCUGUGGCUAGCCUGCC	0.06
GGCUGAGCGCAACACAGCGUGGCAAAGUGGCUGGGGCUAGACUGCC	0.07
GGCAGAGCUCAACACAACGUGGCAAAGUGGCUGUGUCUAGACAGAC	0.03
GGAAGAGCUCAACACAGCGCGGAAAGGUGGCUGUGGCUAGACUGCC	0.09
GGCAGUGCUCACCACAGCGUGGCAAAGUGGCUGUGGGUAGACUGCC	0
GGCCGAGCUCAACACAGAGUGGCAAAAUGGCUGUGGCUAGACUCCC	0.04
GGCAGAGUUCAACACGGCGUGGCAAAGUGGCGAUGGCUAGACUGCG	0.05
GGCAGAGCUCAAUACAGAGUGGCAAAGUGGCUGUGGCUAGACUGAC	0.02
GGCACAACUCAACACAGCGUGGCAAAGUGGCUGUGGCUAGACUCCC	0.29
GGCAGAGAACCACACAGCGUGGCAAAGUGGCUGUGGCUAGACUGCC	0.02
GGCAUAGCUCAACCCAUCGUCGCAAAGUGGCUGUGGCUAGACUGCC	0.14
GGCUAAGCUCAACACAGCGUGGCAAAGUGGCUGUGGCUCGAGUGCC	0.04
GGCAGAGCUCUACACAGCGUUGCAUAGUGGCUGUGGCUAGACUGCC	0.1
GGCAGAGCUCAAUACAGCGUGUCAAAGUGUCUGUGGCUAGACUGCC	0.72
GGUAGAGCUCAAUAAAGCGUGGCAAAGUGGCUGUGGCUAGACUGCC	0.06
GCCAGAGCUCAACACAGCGUGGCAAAGUGGCCGUGUGCAGUCUGCC	0.02
GGCAGAGCUCAACGCAUCGUGGCAAAGUGGCUGUGUCUAGACUGCC	0.02

Variant	self-cleavage
GGCAGAGCUCAGCACAGCGUGGCAAAGUGGCUGUGGCUAUACUGCU	0.02
GGCAGAGCUCAUCACGGCGUAGCAAAGUGGCUGUGGCUAGACUGCC	0.1
UGCAGCGCUCAACAGAGCGUGGCAAAGUGGCUGCGGCUAGACUGCC	0.02
GCCAGCACUCAACACAGCGUGGCAAAGUGGCUGUGGCUAGACUGCC	0.19
GGCAGAGAUCAACACAUCGUGGCAAAGUGGCUGUGCCUUGAGUGCC	0.14
GGCGUACUUCAACACAGCGUGGCAAAGUGGCUGCGGCUAGACUGGC	0.33
GGCAGUGCUCAACACAGCCUGGCAAAGUGGCUAUGGCUAGACUGCC	0.07
GGCAGAGCUCACCACAGCGUGGCAAAGUGGCGGUGACUAGACUGCC	0.01
GGCUGAGCUCAACGCAGUGUGGCAAAGUGUCUGUGUCUAGACUGCC	0.17
GGCAGAGCUCAAUACAGCGUGGCAAAGUGGCUGUGGCUAUACUGGA	0.02
GGUAGAGCUCAACACAGCGUGCGAAAGUGGCUGUGGCUAGACUACC	0.13
GGCAGAGCUCAACACAGCGUCGCAAAGUGUCUGUGGCUACACUGCC	0.04
GGCAGCGCUCAACACAGAAAGGCAAAGUGUCUGUGGCUAGACUGCC	0.45
GGCAGAGCUCAACACAACGUGGAAAAGUGGCUGAGGCUAGACUGGC	0.01
GACAAAGCUCAACACAGCGUGGCAGAGGGGUUGUGGCUAGACUGCC	0.16
GGCAGAGCAUAACACAGCGUGGCAAAGUGGCUGUGGCUAGACUUCC	0.11
GGCAGAGCACAAUACUGCGUGGCAAAAUGGCUGUGGCUAGACUGCC	0.1
GCCAGAGCACAACUCAUCGUGGCAAAGUGGAUGUGGCUUGUCUGAC	0.09
GGCAGAGCUCACCAAAGCGUGGCAAAUUGGCUGUCGCUAGACUGCC	0
GGCAGAGCUCAUCACAGCGUGGCAAAGUUGCUGUGGCUAGACUGUG	0.27
